Measurements taken from PubChem BioAssay AID1671188 (National Center for Advancing Translational Sciences (NCATS), 2021).
The whole screen tested about 100,000 compounds, of which about 250 (0.25%) were called active. The shares of active, inactive and inconclusive entries below differ from those in the screen. Calls follow the shape of the dose curve; as a rule, active = well fitted inhibition curve with a large enough effect; inconclusive = small, poorly fitted or top-dose-only effect; inactive = flat fitted curve, though single readings scatter. No potency is given beside an inconclusive call; the fits are too rough.
% is scaled to controls: 0 for no effect and ±100 for the full control effect; potency is read from the fitted curve at half-maximal effect; tags tell the direction and shape of the fitted curve.
Also: nearly all actives have a fitted effect of over 60% in size.

These compounds were tested against Alanine aminotransferase 2 (Homo sapiens) (UniProt Q8TD30) (assay: Primary qHTS assay for inhibitors of Glutamate pyruvate transaminase 2 (GPT2)). Conditions: Recombinant GPT2, coupled pyruvate oxidase/HRP Amplex Red fluorescence; activity change, negative = inhibition: at 57.7 µM (top of the series) unless noted; series mostly up to 57.7 µM.
Chain of UniProt Q8TD30 (Q8TD30 whole entry, looked up): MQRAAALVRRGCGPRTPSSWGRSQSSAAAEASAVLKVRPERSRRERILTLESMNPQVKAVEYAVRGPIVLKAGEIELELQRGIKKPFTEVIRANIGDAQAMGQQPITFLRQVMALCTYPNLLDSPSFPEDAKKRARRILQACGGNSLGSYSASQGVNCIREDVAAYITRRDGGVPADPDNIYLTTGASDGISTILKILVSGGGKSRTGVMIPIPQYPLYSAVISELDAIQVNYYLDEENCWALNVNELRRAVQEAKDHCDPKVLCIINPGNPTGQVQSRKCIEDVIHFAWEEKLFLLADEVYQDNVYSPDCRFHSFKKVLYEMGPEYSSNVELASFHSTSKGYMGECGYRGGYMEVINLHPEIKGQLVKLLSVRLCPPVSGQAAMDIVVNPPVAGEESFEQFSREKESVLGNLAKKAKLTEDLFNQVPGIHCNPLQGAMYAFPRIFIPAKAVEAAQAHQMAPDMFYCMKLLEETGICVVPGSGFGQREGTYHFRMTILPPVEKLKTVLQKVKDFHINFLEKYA
Procedure, shortened: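 Fluorescence of coupled pyruvate oxidase/HRP/Amplex Red system (50uM Amplex, 30 min, dark) reports pyruvate formed by GPT2. Enzyme reaction: 10ng/uL GPT2, 2mM L-alanine, 250uM a-KG, 30 min room temperature, pH 7.5; 50uM AOA control.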
For Cc1ccccc1Nc1cnc2ccc(-n3ccnc3)nn12, the Potency was inconclusive [inhibitor, single point].
COc1ccc(-c2onc(C)c2C(=O)NCCc2cccs2)cc1 was tested, and the Potency was “inactive”.
COc1cc(CNCc2nnn3c2CN(Cc2ccccc2C#N)C(=O)CC3)cc(OC)c1 was tested, and the Potency was “inactive”.
In the case of COc1ccc(OCc2nc(C)c(CCO)c(=O)n2CC(=O)Nc2ccc(Cl)cc2F)cc1, the Potency is reported as inconclusive [inhibitor, full curve].
For CC(=O)N1CCCC(c2[nH]ccc2C(=O)NCc2ccc3c(c2)OCO3)C1 (stereo not given), the Potency was “inactive”.
For COc1ccc(CN2C=C(C(=O)OCc3c(C)noc3C)C(C)=NS2(=O)=O)cc1, the Potency was inconclusive [inhibitor, single point].
In the case of COc1cc(Cl)cc(CN2CCC3(CCCNC3)C2)c1OC (stereo not given), the Potency is reported as “inactive”.
With C[S+](=O)([O-])Nc1cccc(Nc2cnc3ccc(-c4ccc(F)cc4)nn23)c1 the Potency was inconclusive [inhibitor, full curve].
CCC(=O)NCc1cc2c(nc1OC)CN(C1CCCC1)C2=O was tested, and the activity change, negative = inhibition was inactive: 0.856% [at 11.5 µM].
For Cn1nccc1OCc1cn2c(=O)n(C)cc(-c3cccc(OCc4ccccc4)c3)c2n1, the Potency was inconclusive [inhibitor, partial curve, poor fit].
In the case of Cc1cccc(S(=O)(=O)N2CCc3c(C(=O)NCCCN4CCCCC4)cccc32)c1, the Potency is reported as “inactive”.
In the case of Cc1cc(O)cc(O[C@@H]2O[C@H](CO)[C@@H](O)[C@H](O)[C@H]2O)c1, the Potency is reported as inconclusive [inhibitor, single point].
With Cc1c(N)c(=O)n(-c2ccccc2)n1C the Potency was inconclusive [inhibitor, single point].
In the case of COc1ccc(NC(=O)C2CCN(c3cc(C(F)(F)F)ncn3)CC2)cc1OC, the Potency is reported as inconclusive [inhibitor, single point].
COc1ccccc1C(=O)N1CCC(C(=O)N2CCC(N3CCOC3=O)CC2)CC1 was tested, and the Potency was “inactive”.
For O=C(NCCCc1ccccc1)c1n[nH]c2c1CN(C(=O)c1ccc(F)cc1F)CC2, the Potency was “inactive”.
In the case of COc1ccc(C(=O)N[C@H](C)c2c(-c3ccc(F)cc3)noc2C(=O)O)cc1, the Potency is reported as inconclusive [inhibitor, single point].
With CNC(=O)c1cnn2c1CN([S+](=O)([O-])c1c(C)noc1C)CC2 the Potency was “inactive”.
For Clc1ccc(CNC2(Cc3cc(COc4ccccc4)on3)COC2)cc1, the Potency was inconclusive [inhibitor, single point].
In the case of O=C(c1cccc(Cl)c1)N1CCN(c2nc3ncccc3o2)CC1, the Potency is reported as inconclusive [inhibitor, partial curve, poor fit].
In the case of CCN1c2cc(C(=O)Nc3ccc(F)c(C)c3)ccc2C(=O)N2CCCCCC21 (stereo not given), the Potency is reported as “inactive”.
With CNC(=O)c1c(F)cccc1Nc1nc(Nc2cc3c(cc2OC)CCN3C(=O)CN(C)C)nc2[nH]ccc12 the Potency was inconclusive [inhibitor, single point].
CCCNC(=O)[C@@H]1Cc2cn(Cc3cc(C)on3)c3cccc(c23)[C@H](CC(C)C)N1 was tested, and the Potency was inconclusive [inhibitor, single point].
In the case of CCCn1cc(C(=O)N2C[C@@H](N(C)C)[C@H](c3ccc(C)cc3)C2)c(C)n1, the Potency is reported as inconclusive [inhibitor, single point].
For C=CCOc1cc(C)c2c(c1C)[C@H](O)C([C@H](C)C(=O)N(C)Cc1ccccc1)CC2 (stereo not given in full), the Potency was “inactive”.
For CC(C)C[C@@H](NC(=O)C1=C[C@@H](NC(=O)Nc2ccccc2Br)[C@@H](O)[C@H](O)C1)C(N)=O, the Potency was inconclusive [inhibitor, full curve, poor fit].
With COc1ccccc1-c1ccc2c(C(=O)NCc3cccc(Cl)c3)nn(C)c2n1 the Potency was inconclusive [inhibitor, single point].
C/C=C(\C)C(=O)OC[C@H]1O[C@@H](O[C@H]2[C@@H](O[C@H]3O[C@H](COC(=O)/C(C)=C/C)[C@@H](O)[C@H](O)[C@H]3O[C@@H]3O[C@H](COC(=O)/C(C)=C/C)[C@@H](O)[C@H](OC(=O)/C(C)=C/C)[C@H]3O)O[C@H](COC(=O)/C(C)=C/C)[C@@H](O)[C@@H]2O)[C@H](O)[C@@H](O)[C@@H]1O was tested, and the Potency was “inactive”.
CCCCn1c(=O)c(C(=O)N2CCN(C(=O)NC(C)C)CC2)nc2cccnc21 was tested, and the Potency was “inactive”.
In the case of CC(C)[C@@](O)(c1ccc2cc(OC(F)F)c(OC(F)F)cc2c1)c1cn[nH]n1, the Potency is reported as inconclusive [inhibitor, single point].
With CC(=O)Oc1c(-c2ccc(NC(=O)c3ccco3)cc2)c(-c2cccc(C)c2)nn1-c1cccc(F)c1 the Potency was inconclusive [inhibitor, single point].
C#CCOc1ccc(C(=O)N[C@@H]2CN(Cc3cccc(OC)c3)CCC[C@H]2O)cc1 was tested, and the Potency was inconclusive [inhibitor, full curve].
O=C(CN1CC2CC(C1)[C@H]1CCCC(=O)N1C2)Nc1ccc2c(c1)OCCO2 (stereo not given in full) was tested, and the Potency was inconclusive [inhibitor, single point].
O=C1COc2ccc(-c3ccccc3)nc2CN1Cc1ccc(F)cc1 was tested, and the Potency was “inactive”.
For C=CCOC(=O)C1=C(C)N=C2SC=C(CC(=O)NCc3ccco3)N2C1c1cccc(C)c1 (stereo not given), the Potency was inconclusive [inhibitor, single point].
With CC(C)OC(C)C(=O)N1CCc2onc(-c3ccc(C(F)(F)F)cc3)c2C1 (stereo not given) the activity change, negative = inhibition was inactive: 0.271% [at 11.5 µM].
COc1c2c(c(C)c3c1C(=O)OC3)OC1(C)CC(O)C34OC(OC)(CCC3(C)C1C2)OC4(C)CO (stereo not given) was tested, and the Potency was “inactive”.
For O=C(NC1CCN(c2cc(-c3ccccc3)[nH]n2)C1)c1ccsc1 (stereo not given), the Potency was inconclusive [inhibitor, single point].
In the case of Cn1nc(-c2nncn2-c2ccccc2)c2c1CCN(C(=O)c1ccncc1)C2, the Potency is reported as “inactive”.
With O=C1NCCCCCCN(C(=O)NCCc2ccccc2)[C@H]2CCCC[C@@H]12 the Potency was inconclusive [inhibitor, single point].
